Assay results from PMC9911399, “Two distinct binding modes provide the RNA-binding protein RbFox with extraordinary sequence specificity”.
Numbering of substitutions follows the chain as printed; changes in the protein carry UniProt numbers. Some of the results follow.

T1: RBFOX1 RRM (Homo sapiens, UniProt Q9NWB1 109-208)
T1 sequence: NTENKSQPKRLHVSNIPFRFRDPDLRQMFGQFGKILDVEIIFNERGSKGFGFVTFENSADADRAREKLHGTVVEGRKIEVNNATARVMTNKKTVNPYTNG

B1: UCGUCCG (DNA:RNA)
RNA: GGGAGACCGGAAUUCAGAUUGUCCUCGUCCGUUAAAUCCCGUCGUAGCCACCA
DNA 1: CAATCTGAATTCCGGTCTCCC
DNA 2: TGGTGGCTACGACGGGATT
B2: ACGUUAG (DNA:RNA)
RNA: B1 RNA with U25A, C29U, C30A
DNA 1: CAATCTGAATTCCGGTCTCCC
DNA 2: TGGTGGCTACGACGGGATT
B3: CGUAAAG (DNA:RNA)
RNA: B1 RNA with U25C, C26G, G27U, U28A, C29A, C30A
DNA 1: CAATCTGAATTCCGGTCTCCC
DNA 2: TGGTGGCTACGACGGGATT
B4: CCGCCCG (DNA:RNA)
RNA: B1 RNA with U25C, U28C
DNA 1: CAATCTGAATTCCGGTCTCCC
DNA 2: TGGTGGCTACGACGGGATT
B5: UGCUGCU (DNA:RNA)
RNA: B1 RNA with C26G, G27C, C29G, G31U
DNA 1: CAATCTGAATTCCGGTCTCCC
DNA 2: TGGTGGCTACGACGGGATT
B6: UCGGCCA (DNA:RNA)
RNA: B1 RNA with U28G, G31A
DNA 1: CAATCTGAATTCCGGTCTCCC
DNA 2: TGGTGGCTACGACGGGATT
B7: AUUAUGU (DNA:RNA)
RNA: GGGAGACCGGAAUUCAGAUUGUCCAUUAUGUUUAAAUCCCGUCGUAGCCACCA
DNA 1: CAATCTGAATTCCGGTCTCCC
DNA 2: TGGTGGCTACGACGGGATT
B8: ACCAGAC (DNA:RNA)
RNA: B7 RNA with U26C, U27C, U29G, G30A, U31C
DNA 1: CAATCTGAATTCCGGTCTCCC
DNA 2: TGGTGGCTACGACGGGATT
B9: GAGGUUA (DNA:RNA)
RNA: B7 RNA with A25G, U26A, U27G, A28G, G30U, U31A
DNA 1: CAATCTGAATTCCGGTCTCCC
DNA 2: TGGTGGCTACGACGGGATT
B10: GAUGUCU (DNA:RNA)
RNA: B7 RNA with A25G, U26A, A28G, G30C
DNA 1: CAATCTGAATTCCGGTCTCCC
DNA 2: TGGTGGCTACGACGGGATT
B11: AGCCCGG (DNA:RNA)
RNA: B7 RNA with U26G, U27C, A28C, U29C, U31G
DNA 1: CAATCTGAATTCCGGTCTCCC
DNA 2: TGGTGGCTACGACGGGATT
B12: GGGUUAC (DNA:RNA)
RNA: B1 RNA with U25G, C26G, C29U, C30A, G31C
DNA 1: CAATCTGAATTCCGGTCTCCC
DNA 2: TGGTGGCTACGACGGGATT
B13: UCAGCGC (DNA:RNA)
RNA: B1 RNA with G27A, U28G, C30G, G31C
DNA 1: CAATCTGAATTCCGGTCTCCC
DNA 2: TGGTGGCTACGACGGGATT
B14: UCUCGGC (DNA:RNA)
RNA: B7 RNA with A25U, U26C, A28C, U29G, U31C
DNA 1: CAATCTGAATTCCGGTCTCCC
DNA 2: TGGTGGCTACGACGGGATT
B15: AGACACC (DNA:RNA)
RNA: B7 RNA with U26G, U27A, A28C, U29A, G30C, U31C
DNA 1: CAATCTGAATTCCGGTCTCCC
DNA 2: TGGTGGCTACGACGGGATT
B16: GAAUGAU (DNA:RNA)
RNA: B7 RNA with A25G, U26A, U27A, A28U, U29G, G30A
DNA 1: CAATCTGAATTCCGGTCTCCC
DNA 2: TGGTGGCTACGACGGGATT
B17: CUUACUC (DNA:RNA)
RNA: B7 RNA with A25C, U29C, G30U, U31C
DNA 1: CAATCTGAATTCCGGTCTCCC
DNA 2: TGGTGGCTACGACGGGATT
B18: UAAACGG (DNA:RNA)
RNA: B1 RNA with C26A, G27A, U28A, C30G
DNA 1: CAATCTGAATTCCGGTCTCCC
DNA 2: TGGTGGCTACGACGGGATT
B19: AGAGGCG (DNA:RNA)
RNA: B1 RNA with U25A, C26G, G27A, U28G, C29G
DNA 1: CAATCTGAATTCCGGTCTCCC
DNA 2: TGGTGGCTACGACGGGATT
B20: AGUGACA (DNA:RNA)
RNA: B7 RNA with U26G, A28G, U29A, G30C, U31A
DNA 1: CAATCTGAATTCCGGTCTCCC
DNA 2: TGGTGGCTACGACGGGATT
B21: AUUGUCC (DNA:RNA)
RNA: B7 RNA with A28G, G30C, U31C
DNA 1: CAATCTGAATTCCGGTCTCCC
DNA 2: TGGTGGCTACGACGGGATT
B22: GGCCCUG (DNA:RNA)
RNA: B1 RNA with U25G, C26G, G27C, U28C, C30U
DNA 1: CAATCTGAATTCCGGTCTCCC
DNA 2: TGGTGGCTACGACGGGATT
B23: GAACUCC (DNA:RNA)
RNA: B7 RNA with A25G, U26A, U27A, A28C, G30C, U31C
DNA 1: CAATCTGAATTCCGGTCTCCC
DNA 2: TGGTGGCTACGACGGGATT
B24: GCCGUGU (DNA:RNA)
RNA: B7 RNA with A25G, U26C, U27C, A28G
DNA 1: CAATCTGAATTCCGGTCTCCC
DNA 2: TGGTGGCTACGACGGGATT
B25: GUUGACG (DNA:RNA)
RNA: B7 RNA with A25G, A28G, U29A, G30C, U31G
DNA 1: CAATCTGAATTCCGGTCTCCC
DNA 2: TGGTGGCTACGACGGGATT
B26: UCAAUGC (DNA:RNA)
RNA: B7 RNA with A25U, U26C, U27A, U31C
DNA 1: CAATCTGAATTCCGGTCTCCC
DNA 2: TGGTGGCTACGACGGGATT
B27: GUUGUAU (DNA:RNA)
RNA: B7 RNA with A25G, A28G, G30A
DNA 1: CAATCTGAATTCCGGTCTCCC
DNA 2: TGGTGGCTACGACGGGATT
B28: CGCUGGC (DNA:RNA)
RNA: B7 RNA with A25C, U26G, U27C, A28U, U29G, U31C
DNA 1: CAATCTGAATTCCGGTCTCCC
DNA 2: TGGTGGCTACGACGGGATT
B29: UUGGCUC (DNA:RNA)
RNA: B1 RNA with C26U, U28G, C30U, G31C
DNA 1: CAATCTGAATTCCGGTCTCCC
DNA 2: TGGTGGCTACGACGGGATT
B30: CCCAGUA (DNA:RNA)
RNA: B7 RNA with A25C, U26C, U27C, U29G, G30U, U31A
DNA 1: CAATCTGAATTCCGGTCTCCC
DNA 2: TGGTGGCTACGACGGGATT
B31: UCAAUCG (DNA:RNA)
RNA: B1 RNA with G27A, U28A, C29U
DNA 1: CAATCTGAATTCCGGTCTCCC
DNA 2: TGGTGGCTACGACGGGATT

Each binder was assayed against T1, RBFOX1 RRM (assay: EMSA; HiTS-Eq, 1 nM pool, 10 min; buffer printed only for the single-RNA assays: 10 mM Tris pH 7.5, 150 mM NaCl, 3.4 mM EDTA, 0.001% NP-40, 30 C). Conditions: tags: His6 N-terminal (pET28a); label: 5' 32P.
Procedure, shortened: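 Purified RbFox RRM (wild type or mutant) was equilibrated for 10 min in 50 µL with 1 nM of a 5′-radiolabelled pool of RNA with 7 randomized nucleotides, its flanks annealed to DNA oligonucleotides, across increasing protein concentrations. Free RNA was separated by 8% native PAGE, excised, reverse-transcribed, PCR-barcoded and sequenced on an Illumina HiSeq 2500. Relative association constants came from read-count changes of each variant against the control reaction, normalised to the cognate motif.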
B1 was tested, and the binding signal was 0.016 KA relative to UGCAUGU.
For B2, the binding signal was 0.00974 KA relative to UGCAUGU.
In the case of B3, the binding signal is reported as 0.00653 KA relative to UGCAUGU.
In the case of B4, the binding signal is reported as 0.0135 KA relative to UGCAUGU.
For B5, the binding signal was 0.0249 KA relative to UGCAUGU.
In the case of B6, the binding signal is reported as 0.0129 KA relative to UGCAUGU.
B7 was tested, and the binding signal was 0.00621 KA relative to UGCAUGU.
For B8, the binding signal was 0.00401 KA relative to UGCAUGU.
For B9, the binding signal was 0.0124 KA relative to UGCAUGU.
With B10 the binding signal was 0.0204 KA relative to UGCAUGU.
B11 was tested, and the binding signal was 0.0103 KA relative to UGCAUGU.
B12 was tested, and the binding signal was 0.0178 KA relative to UGCAUGU.
B13 was tested, and the binding signal was 0.00976 KA relative to UGCAUGU.
For B14, the binding signal was 0.012 KA relative to UGCAUGU.
For B15, the binding signal was 0.00302 KA relative to UGCAUGU.
With B16 the binding signal was 0.0221 KA relative to UGCAUGU.
In the case of B17, the binding signal is reported as 0.00612 KA relative to UGCAUGU.
B18 was tested, and the binding signal was 0.00824 KA relative to UGCAUGU.
In the case of B19, the binding signal is reported as 0.0154 KA relative to UGCAUGU.
For B20, the binding signal was 0.00523 KA relative to UGCAUGU.
In the case of B21, the binding signal is reported as 0.00619 KA relative to UGCAUGU.
B22 was tested, and the binding signal was 0.0193 KA relative to UGCAUGU.
With B23 the binding signal was 0.00433 KA relative to UGCAUGU.
For B24, the binding signal was 0.015 KA relative to UGCAUGU.
For B25, the binding signal was 0.0143 KA relative to UGCAUGU.
B26 was tested, and the binding signal was 0.0089 KA relative to UGCAUGU.
With B27 the binding signal was 0.0103 KA relative to UGCAUGU.
In the case of B28, the binding signal is reported as 0.0221 KA relative to UGCAUGU.
With B29 the binding signal was 0.0219 KA relative to UGCAUGU.
For B30, the binding signal was 0.000997 KA relative to UGCAUGU.
For B31, the binding signal was 0.0054 KA relative to UGCAUGU.
